PubChem BioAssay AID686978 (National Center for Advancing Translational Sciences (NCATS), 2013)
Values joined by “and” are separate entries in the source; they are usually repeats but may differ in a detail not shown here. Equal entries are not always repeated. In all, about 420,000 compounds went through this assay and about 64,000 (15%) were called active. Inconclusive means that the source gave no clear call. Such entries were picked first, then a sample of the others. The call rests on the fitted dose curve; in most records, active means well fitted inhibition curve with a large enough effect; inconclusive means small, poorly fitted or top-dose-only effect; inactive means flat fitted curve, though single readings scatter. Potencies of inconclusive entries are doubtful fits and often do not repeat.
On the % scale 0 is the no-effect control and ±100 the full control effect; potency means the concentration at half of the fitted maximal effect; tags describe the fitted curve by direction and shape.

Experiment: qHTS for Inhibitors of human tyrosyl-DNA phosphodiesterase 1 (TDP1): qHTS in cells in absence of CPT; further: nearly all actives have a fitted effect of over 55% in size
Details: DT40 Tdp1-/- hTDP1 cells, no CPT, ATP luminescence, 48 h; activity change, negative = growth inhibition: at 46.2 µM (top of the series) unless noted
How it was run: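 DT40 Tdp1-/-;hTDP1 cells, no CPT (DMSO vehicle only), 400 cells/well; compounds pin-transferred; ≥48 hr, 37 °C; CellTiter-Glo 30 min RT dark, luminescence read.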
With `COC(=O)[C@@]1(Cc2ccc(OC)cc2)[C@H]2c3cc(C(=O)N4CCCC4)n(Cc4cc(C)n(C)n4)c3C[C@H]2CN1C(=O)c1ccccc1` the Potency was inconclusive: 29.1 µM [inhibitor, single point]. With `CC(=O)C1CCCN(C(=O)c2ccc3oc(CCc4ccccc4)nc3c2)C1` (stereo unspecified) the Potency was inconclusive: 29.1 µM [inhibitor, single point]. In the case of `CCOc1ccc(C2c3[nH]c4ccccc4c3CCN2C(=O)Cc2cccc(OCC)c2OCC)cc1` (stereo unspecified), the Potency is reported as inconclusive: 18.4 µM [inhibitor, partial curve]. For `COc1ccccc1C(CC(N)=O)c1ccco1` (stereo unspecified), the “activity change, negative = growth inhibition” value was inactive: -13%. With `COCCNC(=S)N1CCC(C(=O)c2ccc(Cl)cc2)CC1` the Potency was inconclusive: 29.1 µM [inhibitor, single point]. In the case of `Cc1cc(NC(=O)c2ccc3c(c2)C(=O)N(C)C3=O)no1`, the “activity change, negative = growth inhibition” value is reported as inactive: -7.82%. In the case of `OC(C#CCCN1CCCCC1)(c1ccccc1)c1ccccc1`, the activity change, negative = growth inhibition is reported as inconclusive: -30.8% [inhibitor]. With `CC(=O)C1=C(C)NC(SCC(=O)c2ccc(Cl)c(Cl)c2)=C(C#N)C1c1ccco1` (stereo unspecified) the Potency was inconclusive: 35.5 µM [inhibitor, single point]. For `Cc1cc(C)c2c(c1)-c1c(ssc1=S)C(C)(C)N2C(=O)CN1C(=O)c2ccccc2C1=O`, the Potency was inconclusive: 29.1 µM [inhibitor, single point]. In the case of `CCOc1ccc(S(=O)(=O)N2CCN(C(=O)c3cc4c(s3)CCCC4)CC2)cc1`, the Potency is reported as inconclusive: 29.1 µM [inhibitor, single point]. In the case of `Cc1ccc(C)c(S(=O)(=O)N2CCN(C(=O)c3ccc4ccccc4n3)CC2)c1`, the Potency is reported as inconclusive: 16.4 µM [inhibitor, partial curve]. With `Cc1ccccc1Cn1nnc2c(=O)[nH]c(C3CCN(C(=O)c4ccccc4)CC3)nc21` the “activity change, negative = growth inhibition” value was inactive: -14%. For `Cc1ccccc1CS(=O)(=O)Cc1ccc(C(=O)NCc2ccco2)o1`, the Potency was inconclusive: 13 µM [inhibitor, partial curve]. In the case of `Cc1ccc(-c2nnn(CC(=O)NCC3CC3)n2)o1`, the “activity change, negative = growth inhibition” value is reported as inactive: 2.54%. With `O=C(Nc1ccc(Cl)c(Cl)c1)c1ccccc1` the Potency was inconclusive: 18.4 µM [inhibitor, single point]. In the case of `O=C(Nc1nnc(CCc2ccccc2)s1)C1CCCO1` (stereo unspecified), the “activity change, negative = growth inhibition” value is reported as inactive: -8.27%. For `O=C(CCc1nnc(Cc2ccc(-c3ccccc3)cc2)o1)NCCc1cccnc1`, the Potency was active: 18.4 µM. In the case of `CCOC(=O)c1c(C)[nH]c(C(=O)OCc2nc3ccsc3c(=O)[nH]2)c1C`, the Potency is reported as inconclusive: 29.1 µM [inhibitor, partial curve, poor fit]. In the case of `CCc1nnc(NC(=O)CCC(=O)Nc2ccc(Cl)cc2)s1`, the “activity change, negative = growth inhibition” value is reported as inactive: 14.3%. For `CCCC(=O)NC(c1ccco1)c1cc(Cl)c2cccnc2c1O` (stereo unspecified), the Potency was active: 4.61 µM. In the case of `Cc1ccc2nc(SCC(=O)Nc3ccccc3F)nc(=O)n2c1`, the Potency is reported as inconclusive: 23.1 µM [inhibitor, single point]. For `Cc1cn([C@H]2C[C@H](F)[C@@H](CO)O2)c(=O)[nH]c1=O`, the Potency was active: 16.8 µM. In the case of `c1ccc(C2CC(c3ccccc3)n3c(nc4ccccc43)N2)cc1` (stereo unspecified), the Potency is reported as active: 14.6 µM. For `O=C(NNC(=O)C1CCCC1)c1cc([N+](=O)[O-])cc([N+](=O)[O-])c1`, the “activity change, negative = growth inhibition” value was inactive: -11.9%. With `Cc1cc(Br)c2c(c1)=C(c1sc(N3CCCCCC3)nc1O)C(=O)N=2` the Potency was inconclusive: 29.1 µM [inhibitor, single point]. With `CCOC(=O)c1c(NC(=O)Cn2nnc(-c3ccc(Cl)cc3)n2)sc(CC)c1C` the Potency was inconclusive: 29.1 µM [inhibitor, single point]. With `CC[C@H](C)/C=C(C)/C=C/C(=O)Cc1cc(O)c(C)c(O)c1C=O` the Potency was inconclusive: 29.1 µM [inhibitor, single point]. In the case of `O=C(NCCc1cn[nH]c1)c1ccc2oc(CCc3ccccc3)nc2c1`, the Potency is reported as inconclusive: 20.6 µM [inhibitor, single point]. With `CCOC(=O)[C@H]1[C@H]2COc3ccc(C)cc3[C@@H]2N2C(=O)c3cc(OC)c(OC)cc3NC(=O)[C@@]12C` the Potency was inconclusive: 29.1 µM [inhibitor, single point]. With `O=C(Nc1ccccc1C(=O)NCCCN1CCOCC1)c1ccc(F)cc1` the “activity change, negative = growth inhibition” value was inactive: 1%. In the case of `COc1ccc(-c2nc3sc(CCNC(=O)c4cccc(C(F)(F)F)c4)c(C)n3n2)cc1`, the Potency is reported as inconclusive: 32.6 µM [inhibitor, single point]. In the case of `CCOC(=O)C1CCN(C(=O)CNC(=O)c2nn(-c3ccc(OC)cc3)c(=O)c3ccccc23)CC1`, the Potency is reported as inconclusive: 13 µM [inhibitor, partial curve]. For `COc1ccccc1N1CCN(C(=O)CCC(=O)Nc2nnc(C(C)C)s2)CC1`, the “activity change, negative = growth inhibition” value was inactive: 7.82%. With `Cc1nnc(NC(=O)CCN2C(=O)C3CC=CCC3C2=O)s1` (stereo unspecified) the “activity change, negative = growth inhibition” value was inactive: 8.18%. In the case of `CCOCCCNC(=S)N1CCCN(c2nc3c(C)c(C)ccc3cc2C#N)CC1`, the Potency is reported as inconclusive: 25.9 µM [inhibitor, single point]. For `CC(NC(=O)c1ccc2c(c1)OCO2)C(c1cccs1)N1CCOCC1` (stereo unspecified), the “activity change, negative = growth inhibition” value was inactive: -1.66%. With `NC(=O)c1ccccc1NC(=O)c1cccc(C(=O)Nc2ccccc2C(N)=O)n1` the Potency was inconclusive: 1.64 µM [inhibitor, full curve]. With `Cc1cc(C)cc(-n2ccnc2SCC(=O)Nc2nc3ccccc3s2)c1` the Potency was inconclusive: 16.4 µM [inhibitor, single point]. With `O=C(NCCc1ccccc1Cl)c1ccc2nc3ccccc3c(=O)n2c1` the Potency was inconclusive: 13 µM [inhibitor, partial curve]. For `Cc1cccc(OCC(=O)O/N=C(\N)Cc2ccc(Cl)cc2)c1`, the Potency was inconclusive: 29.1 µM [inhibitor, single point]. In the case of `CCC(C(=O)NCc1ccccc1OC)n1nc(C)n2c(cc3sccc32)c1=O` (stereo unspecified), the Potency is reported as inconclusive: 2.06 µM [inhibitor, single point]. In the case of `CC1=NN(C(=O)c2ccc(Cn3cc([N+](=O)[O-])cn3)cc2)C(O)(C(F)(F)F)C1` (stereo unspecified), the Potency is reported as active: 3.66 µM. With `CC(=O)c1c(COC(=O)c2ccccc2Cl)nc2ccccc2[n+]1[O-]` the “activity change, negative = growth inhibition” value was inactive: -19.2%. With `O=C(Nc1cccnc1)c1cc(-c2ccc3c(c2)OCO3)on1` the “activity change, negative = growth inhibition” value was inactive: -1.14%. In the case of `CN(CC#CC(O)(c1ccccc1)c1ccccc1)C(C)(C)C`, the “activity change, negative = growth inhibition” value is reported as inactive: -14.9%. For `Cc1[nH]c2c(C)cccc2c1CCNS(=O)(=O)c1cccc([N+](=O)[O-])c1`, the Potency was inconclusive: 29.1 µM [inhibitor, single point]. With `CCOC(=O)c1c(S(=O)(=O)NCC(=O)Nc2ccc(C)c(Cl)c2)c(C)n(C)c1C` the “activity change, negative = growth inhibition” value was inactive: -27.2%. For `O=C(NNC(=O)C(c1ccccc1)c1ccccc1)c1ccccc1O`, the Potency was inconclusive: 16.4 µM [inhibitor, single point]. In the case of `NCC(c1ccccc1Cl)c1c[nH]c2ccccc12` (stereo unspecified), the Potency is reported as active: 13 µM. With `COCCCC1CCN(C(=O)C2CCC(=O)N(CCCc3ccccc3)C2)CC1` (stereo unspecified) the Potency was inconclusive: 18.4 µM [inhibitor, single point]. With `Clc1ccc(Nc2nc(-c3cccs3)cs2)nc1` the Potency was inconclusive: 16.4 µM [inhibitor, partial curve]. With `CC1CCN(C(=O)CSc2nnc(Cc3cc(=O)[nH]c(=O)[nH]3)n2-c2ccc(Cl)cc2)CC1` the Potency was “inactive”. In the case of `COc1ccc2nc(NC(=O)C3CCN(S(=O)(=O)c4cccs4)CC3)sc2c1`, the Potency is reported as active: 29.1 µM. In the case of `Cc1[nH]c2ccc(S(N)(=O)=O)cc2c1C`, the “activity change, negative = growth inhibition” value is reported as inactive: 1.87%. In the case of `CCOC(=O)c1ccc(NC(=O)C2COc3ccccc3O2)cc1` (stereo unspecified), the Potency is reported as inconclusive: 16.4 µM [inhibitor, single point]. With `COc1ccc(NC(=O)c2cc(Br)c(Br)s2)cn1` the Potency was inconclusive: 10.3 µM [inhibitor, partial curve, poor fit]. In the case of `CSc1ncc(C(=O)NCc2ccccc2)c(-c2ccccc2)n1`, the “activity change, negative = growth inhibition” value is reported as inactive: -11.5%. For `FC(F)(F)c1cccc(Nc2nc(N3CCOCC3)nc(N3CCOCC3)n2)c1`, the Potency was inconclusive: 18.4 µM [inhibitor, single point]. For `Cc1ccc(NCc2nnc(SCC(=O)c3ccccc3)n2Cc2ccco2)c(C)c1`, the Potency was active: 16.4 µM. With `Cc1cccc(C(C)C)c1NC(=O)c1ccc(OCC2CCCO2)cc1` (stereo unspecified) the Potency was inconclusive: 29.1 µM [inhibitor, single point]. For `O=C(NC(NC1CCS(=O)(=O)C1)C(Cl)(Cl)Cl)c1ccc(Br)cc1` (stereo unspecified), the Potency was active: 7.31 µM. In the case of `O=[N+]([O-])c1cccc2ccc(/C=C/c3ccc(F)cc3)nc12`, the Potency is reported as inconclusive: 29.1 µM [inhibitor, single point]. In the case of `Cc1ccc([C@H]2C[C@@H](O)[C@H](n3cc(COC(=O)c4ccccc4)nn3)CN2C(=O)c2cccs2)cc1`, the Potency is reported as active: 25.9 µM. In the case of `Cc1ccc(CCNC(=O)C2CC(c3ccccc3[N+](=O)[O-])=NO2)cc1` (stereo unspecified), the Potency is reported as inconclusive: 16.4 µM [inhibitor, single point]. For `COc1ccc2nc(NC(=O)c3ccccc3O)sc2c1`, the Potency was inconclusive: 16.4 µM [inhibitor, single point]. In the case of `CCCCn1c(N)c(N(CCOC)C(=O)c2cccc(S(=O)(=O)N3CCCCCC3)c2)c(=O)[nH]c1=O`, the “activity change, negative = growth inhibition” value is reported as inactive: -17.5%. For `CC(C)Oc1ccc(CNC(=O)c2ccc(NC(=O)N3CCSc4ncccc43)cc2)cc1`, the Potency was inconclusive: 16.4 µM [inhibitor, partial curve]. In the case of `CC1(N(O)/C=C2\C=CC=CC2=O)CCCCC1=O` (stereo unspecified), the “activity change, negative = growth inhibition” value is reported as inactive: 19.2%. In the case of `CCOCc1nnc(NC(=O)c2ccc3c(c2)OCO3)s1`, the “activity change, negative = growth inhibition” value is reported as inactive: 19.9%. For `COc1ccc(NC(=O)C2CCCN2S(=O)(=O)c2cccc3cccnc23)cc1OC` (stereo unspecified), the Potency was “inactive and inconclusive: 25.9 µM [inhibitor, single point]”. With `Nc1ccn([C@@H]2O[C@H](C(=O)N[C@H](CO)Cc3ccccc3)[C@@H](O)[C@H]2O)c(=O)n1` the “activity change, negative = growth inhibition” value was inactive: 3.56%.
